The source of these data is the supplement of paper PMC8183993.

Values joined by “and” are separate entries in the source; they are usually repeats but may differ in a detail not shown here. Equal entries are not always repeated. Structures can show the parent of a compound that is named as a salt. ± gives the standard deviation of the averaged measurements. In all, about 3,200 compounds were measured (“nuclei count (viability) relative to DMSO”: median about 99, lowest 2% from about 16 on). Some of the results follow.

The subject of this assay is U2OS. Put plainly: nuclei count (viability) relative to DMSO (% of DMSO); higher = more viable cells. The note with it: 10 µM; 24 h. The procedure: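 Primary image-based screen in U2OS cells: compounds at 10 uM for 24 h, then a 1 h o-propargyl-puromycin (OPP) pulse, click labelling, and high-throughput microscopy. Mean cytoplasmic OPP intensity and nuclei count were normalised to DMSO wells within each plate (DMSO = 100) and averaged over triplicate plates.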
Take `CCCNCC(O)COc1ccccc1C(=O)CCc1ccccc1` (stereo unspecified) [Propafenone hydrochloride]: the nuclei count amounted to 91.7. The value for `CCCNCC(O)COc1ccccc1C(=O)CCc1ccccc1` (stereo unspecified) [Propafenone] was 90.7; that for `NC(=O)C(c1ccccc1)(c1ccccc1)[C@@H]1CCN(CCc2ccc3c(c2)CCO3)C1` [Darifenacin hydrobromide] was 98.1. The same measure for `O=C1c2ccc(Nc3ccc(F)cc3F)cc2CCc2ccc(OC[C@H](O)CO)cc21` [Skepinone-L]: 80; for `O=S(=O)(O)NC1CCCCC1` [Cyclamic  acid]: 88.8; for `CC(C)NC[C@@H](O)COc1cccc2ccccc12` [(R)-(+)-Propranolol hydrochloride]: 89.9.

The compound `CC(C)NC[C@@H](O)COc1cccc2ccccc12` [(R)-Propranolol hydrochloride] showed a nuclei count of 105.

In the case of `O=C(NCCO)c1cccc(-c2cc(Nc3ccc(OC(F)(F)F)cc3)ncn2)c1`, the nuclei count was 99.7. The value for `COCC[n+]1c2c(n(Cc3cnccn3)c1C)C(=O)c1ccccc1C2=O` was 14.1; that for `CCN(CC)CCc1nc(-c2ccccc2)no1` [Oxalamine citrate salt] was 101.

The compound `CNCC(O)c1ccc(OC(=O)C(C)(C)C)c(OC(=O)C(C)(C)C)c1` (stereo unspecified) [Dipivefrin hydrochloride] registered a nuclei count of 105.

In the case of `CC(C)NCC(O)c1ccc(O)c(O)c1` (single isomer, unassigned; (+)) [(+)-Isoproterenol (+)-bitartrate salt], the nuclei count is 88.6.

The compound `COc1ccc([C@]2(C#N)CC[C@@H](C(=O)O)CC2)cc1OC1CCCC1` had a nuclei count of 106. Turning to `CC(NCCC(c1ccccc1)c1ccccc1)c1ccccc1` (stereo unspecified) [Fendiline hydrochloride], the nuclei count turned out to be 91.2. The value for `Cc1cc2c(F)c(Oc3ncnn4cc(OC[C@@H](C)OC(=O)[C@H](C)N)c(C)c34)ccc2[nH]1` was 98.77 ± 0.34. Take `O=c1[nH]c(=O)n(C2CCCO2)cc1F` (stereo unspecified) [Ftorafur]: the nuclei count came out at 108. With `CCOC(=O)Nc1cc(-c2ccc(C)c(NS(C)(=O)=O)c2)nn2c(C)nnc12` [Bromosporine], the nuclei count came to 74.5. The same measure for `Cc1c(N(C)CS(=O)(=O)O)c(=O)n(-c2ccccc2)n1C` [Dipyrone]: 102; for `C[C@@H]1CCN(C(=O)CC#N)C[C@@H]1N(C)c1ncnc2[nH]ccc12`: 105 and 103; for `COc1cc2c(cc1C(F)(F)F)N(C(=O)Nc1cc(F)cc(-c3cccnc3)c1)CC2`: 91.9. `CCC(C)N(C)C(=O)c1cc2ccccc2c(-c2ccccc2Cl)n1` (stereo unspecified) had a nuclei count of 106.

Consider `Nc1nc2ccc(Cl)cc2c2nc(-c3ccco3)nn12`, for which the nuclei count worked out at 95.4. On to `Nc1cc(C(Cl)=C(Cl)Cl)c(S(N)(=O)=O)cc1S(N)(=O)=O` [Clorsulon], for which the nuclei count was determined as 103. The same measure for `CC[C@H](C)C(=O)O[C@H]1CCC=C2C=C[C@H](C)[C@H](CC[C@@H]3C[C@@H](O)CC(=O)O3)[C@H]21` [Mevastatin]: 102 ± 3.2; for `Cc1ccc2c(c1)C(=O)C1(O)CCN(c3ccccc3)C1=N2` (stereo unspecified) [(?)-Blebbistatin]: 96.3. `COc1c2occc2c(OC)c2c(=O)cc(C)oc12` [Khellin] returned a nuclei count of 87.4.

Consider `NNc1nncc2ccccc12` [Hydralazine hydrochloride], for which the nuclei count came out at 106. `NNc1nncc2ccccc12` [Hydralazine HCl] had a nuclei count of 98.2. For the compound `CC(=O)OCC(CCn1cnc2cnc(N)nc21)COC(C)=O` [Famciclovir], the nuclei count came out at 118. In the case of `COc1ccc([C@@H]2CC(=O)c3c(O)cc(O[C@@H]4O[C@H](CO)[C@@H](O)[C@H](O)[C@H]4O[C@@H]4O[C@@H](C)[C@H](O)[C@@H](O)[C@H]4O)cc3O2)cc1O` [Neohesperidin], the nuclei count was determined as 98.6. The same measure for `O=C(/C=C/c1ccc(O)c(O)c1)OCCc1ccccc1` [Caffeic acid phenethyl ester]: 96.6.

The compound `C=CC(=O)Nc1cccc(Oc2nc(Nc3ccc(N4CCN(C)CC4)cc3OC)ncc2Cl)c1` had a nuclei count of 107. The same measure for `CN1CCN(c2c(F)cc3c(=O)c(C(=O)O)cn(CCF)c3c2F)CC1` [Fleroxacin]: 98.

The compound `C[N+](C)(C)CC[N+]1(C)Cc2c(Cl)c(Cl)c(Cl)c(Cl)c2C1` [Chlorisondamine diiodide] had a nuclei count of 90.8.

`C[C@H](CCC(=O)O)[C@H]1CC[C@H]2[C@@H]3[C@H](O)C[C@@H]4C[C@H](O)CC[C@]4(C)[C@H]3CC[C@]12C` [Chenodeoxycholic acid] came in with a nuclei count of 101 ± 2.2. `C[C@H](CCC(=O)O)[C@H]1CC[C@H]2[C@@H]3[C@H](O)C[C@@H]4C[C@H](O)CC[C@]4(C)[C@H]3CC[C@]12C` [Chenodiol] registered a nuclei count of 109. For the compound `O=C1c2ccccc2C(=O)c2c1ccc(O)c2O` [Alizarin], the nuclei count worked out at 89.7. In turn, `CC(/C=C1\SC(=S)N(CC(=O)O)C1=O)=C\c1ccccc1` [Epalrestat] showed a nuclei count of 108.

Consider `CCC(=O)OCN1C(=O)C=CC1=O`, for which the nuclei count was 109. Consider `CCCOc1ccn2c(C(C)=O)cc(-c3ccccc3S(C)(=O)=O)c2c1`, for which the nuclei count was 96.4. Consider `CN1CCN(CCCN2c3ccccc3Sc3ccc(Cl)cc32)CC1` [Prochlorperazine dimaleate], for which the nuclei count came to 85.7. `CN(C)C[C@@H]1CCn2cc(c3ccccc32)C2=C(C(=O)NC2=O)c2cn(c3ccccc23)CCO1`: the nuclei count is 88.1. Take `Cc1nc(=O)c2cc(CN(C)c3ccc(C(=O)N[C@@H](CCC(=O)O)C(=O)O)s3)ccc2[nH]1` [Raltitrexed (Tomudex)]: the nuclei count was determined as 95.8.

In turn, `CC(=O)[C@]1(O)Cc2c(O)c3c(c(O)c2[C@@H](O[C@H]2C[C@H](N)[C@H](O)[C@H](C)O2)C1)C(=O)c1ccccc1C3=O` [Idarubicin HCl] yielded a nuclei count of 11.6. Turning to `Cn1ccc2cc(NC(=O)Nc3cccnc3)ccc21`, the nuclei count was 112. Take `CS(=O)(=O)N1CCc2c(-c3cnc(N)nc3)nc(N3CCOCC3)nc21`: the nuclei count was found to be 81.3 ± 0.17. For the compound `O=c1oc2ccccc2c(O)c1Cc1c(O)c2ccccc2oc1=O` [Dicumarol], the nuclei count is 103. `O=C(O)COC(=O)Cc1ccccc1Nc1c(Cl)cccc1Cl` [Aceclofenac] registered a nuclei count of 102. `c1ccc(CN2CCC3(CCc4ccccc43)CC2)cc1` [L-693,403 maleate] gave a nuclei count of 102. The compound `C[C@@H]1C[C@H]2[C@@H]3CCC4=CC(=O)C=C[C@]4(C)[C@@]3(F)[C@@H](O)C[C@]2(C)[C@@]1(O)C(=O)CO` [Dexamethasone] displayed a nuclei count of 105 ± 4.5. `CC1(C)O[C@@H]2C[C@H]3[C@@H]4CCC5=CC(=O)C=C[C@]5(C)[C@@]4(F)[C@@H](O)C[C@]3(C)[C@]2(C(=O)CO)O1` [Triamcinolone Acetonide] returned a nuclei count of 108.
